# Experimental data as given in the supplement of paper PMC11417369.
# ± gives the standard deviation of the averaged measurements. This is one part of the list.
# System: PfAP2-I AP2 domain 3 (GST-tagged)
# Assay: gcPBM binding intensity (ln(normalized median fluorescence intensity)); higher = stronger DNA binding
# Method in brief: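 After 1 h on an Agilent 4 × 180k array of primer-extended double-stranded 36-bp intergenic genomic probes and negative controls, bound GST-tagged P. falciparum DNA-binding domains were detected with Alexa488 anti-GST antibody and scanned at 488 nm. The domains had been expressed in E. coli, and binding took place in 1× PBS with 1% milk, 0.2 mg/ml BSA, 0.5% salmon testes DNA and 0.03% Triton X-100. Binding intensity is the highest Masliner-normalised natural-log median intensity across replicate spots of either probe orientation.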
row,Sequence,gcPBM binding intensity (ln)
1,AAAAAAAGGATGTACGTATCATAATTTTATTTTATA [CACACA_negctrl_site1543],7.78 ± 0.17
2,ATGGTTTAATTATATACACACTCGAAAATAACGACA [CACACA_site3258],7.84 ± 0.52
3,TGATATTATATTGTGATGCACTTTAAAAATATAAAG [GTGCAC_site9509],9.12 ± 0.17
4,CTTAAGTAAAATTAAAGTACATGGACAAAAAATATA [XGTACX_site7900],8.1 ± 0.31
5,TATCTCATGCGCACAAAAATATATGCAAAGAGTATA [TGCATGCA_negctrl_site201],9.02 ± 0.54
6,AATAATAACAAATGAACACACATATAGATGAGCAAA [CACACA_site7076],7.59 ± 0.59
7,TGGGTATATATAAAAGGTACACAAAATGAAGATATA [XGTACX_site4994],8.02 ± 0.64
8,TTTTCTGTGTTTTTGGGTACACACAAATAGCTTGTA [XGTACX_site8553],8.14 ± 0.44
9,TAATTTCTTATGTATTGTACAAATAATATATTATAT [XGTACX_site1037],7.78 ± 0.35
10,GAGCCCAAAAAATTAGGTACGTATAAAGAGGTATTT [XGTACX_site5348],7.78 ± 0.7
11,TTTGTGTTGTATTTTTGTACATAAAATAAACTTAAA [XGTACX_site4637],7.96 ± 0.26
12,TCTTTTTTCATATTTTCACACATGTCTTTATATTTA [CACACA_site6025],8.28 ± 0.65
13,AGGAAAATTTTATTTGCACACATTATTACGTCTAAA [CACACA_site2337],9.9 ± 0.4
14,CATATATATATTGGAAGTACATATTTAATATTCATT [XGTACX_site3545],7.68 ± 0.53
15,ACATGTAATATAATGTGTACATATACAAAGGTATAT [XGTACX_site4145],7.74 ± 0.58
16,ATAAAGTATATTATATGTACATATATATATTATATA [XGTACX_site1345],7.71 ± 0.28
17,AGATGAGAAATATATACACACAATAATACCTATTTA [CACACA_site876],7.5 ± 0.64
18,AAAATAAAAAAAATAAATAAAAAAAATAATAATAAA [CACACA_negctrl_site563],7.25 ± 0.57
19,TCATAAATATAAAGTGTGCACTTGAATAATATGTAT,9.74
20,TAAATAAATCTGTGCTTGCACTTTTTTTGTTATTTT,8.06 ± 0.58
21,ATATAAACATATAATAGTACACTTCGATAATTTTAT [XGTACX_site3321],7.8 ± 0.52
22,ATTTAACATATAAAATGTACATATATATATATATTT [XGTACX_site2525],7.87 ± 0.11
23,GTACCATCAAAATAAATATATATATATATATATTTT [GTGCAC_negctrl_site646],7.72 ± 0.38

row,Sequence,gcPBM binding intensity (ln)
1,CTCTTTTCTTATAATACACACAGTAATATTTATATA [CACACA_site6824],8.38 ± 0.43
2,AATAAAAAAAATTTCTGTACATATATTTATTATATA [XGTACX_site1883],7.46 ± 0.46
3,CAAACCCACCAACACACACACACAAAAATGATTAAA [CACACA_site2432],8.03 ± 0.23
4,ATATATTTTGATTGCACACAGAATTTAAATCATGAT [CACACA_site2343],9.27 ± 0.15
5,GAAGATATATAATAATTCATAGTTTTTTAATTTAAA [TGCATGCA_negctrl_site295],7.21 ± 0.19
6,TACTTTTTTATTTGGTGTACAAATAAAATCATAATG [XGTACX_site1802],8.24 ± 0.057
7,ATTATTTTTTTTGAAGTGCAATATTATTTTTAATCA,10.6 ± 0.54
8,TATATTTTTATGTGTGTGCACAAAATAACAAAATAT [GTGCAC_site9596],11.1 ± 0.35
9,TATACTACCCAGAGCTGTACAAAATAATAATAAGTT [XGTACX_site1045],8.02 ± 0.82
10,ATGGTTATATTTGAAGTGCAAAAAAAAATATATGTA,9.93 ± 0.099
11,ATGTGGATTTTATAATGTACATATGATATTATTTTG [XGTACX_site7930],7.73 ± 0.45
12,CAATTCAATATATATACACACACACTATTAATAATT [CACACA_site9256],7.98 ± 0.44
13,GTTAAGTGGATATATACACACATATGCAATACATGA [CACACA_site7427],8.19 ± 0.44
14,ATTCCTTTATTATCACGTACTTATAAAATATAGTAT [XGTACX_site7498],8.35 ± 0.42
15,TTTTAATAAATCATTTTCCTAATATTTATATTTGCT [TGCATGCA_negctrl_site232],7.29 ± 0.61
16,TTTTTCATTTAGCTTTTACACACTATATATTATTGA [CACACA_site7888],7.94 ± 0.86
17,ATAAACAGATAAAAGGGTACACACATATATACATGT [XGTACX_site452],7.96 ± 0.47
18,TTATATATATATTGTTCACACATAATATAAATATTT [CACACA_site5835],7.45 ± 0.49
19,TTAAATAAAATAAAAACATGCACACTTTATTTTTTT [TGCATGCA_site719],8.5 ± 0.54
20,CATATAAAATAATTCACACAAATATACAAATACCCA [CACACA_site5340],7.79 ± 0.39
21,TATTTAATTTTTAAATGTACATATAAAATAATATAT [XGTACX_site2422],7.9 ± 0.23
22,AAAAAAAATTTCTTCTGTACGCATAAATTTTTATTA [XGTACX_site8721],8.05 ± 0.17
23,TTTTTCAGAAAAGAAACACACATATATATATTTATA [CACACA_site2372],7.63 ± 0.39

row,Sequence,gcPBM binding intensity (ln)
1,AATGATAATATTTCCTTCTTTTTTACTTCTTTCTTT [CACACA_negctrl_site776],7.79 ± 0.67
2,AAAATGGTTTATAAATGTACATATATTATATATAAC [XGTACX_site7959],7.79 ± 0.43
3,CCTATCCAGACATATACACACATATCTATTTATATA [CACACA_site5001],8.01 ± 0.57
4,TTTACTTTCCCAAGTTGTACTGCTTCTAAGCTTTTT [XGTACX_site2708],7.63 ± 0.58
5,TATAAAAAATAATACACACACATGGCGACAAAATAA [CACACA_site2420],8.09 ± 0.64
6,ACGTTTTATAATTAATGTACAAATATTAAAATTGCA [XGTACX_site7869],7.86 ± 0.44
7,GAATAAATTAAAAATGCACACTTTGATGGGTACATT [CACACA_site5220],8.76 ± 0.014
8,TATATTTGCAGTAATAATAATTATTATAAAAGATAA [XGTACX_negctrl_site547],8.6 ± 0.28
9,TATGAATGGTTAAGTACACACATATTAAGATATGTA [CACACA_site5852],7.53 ± 0.3
10,TTATTTATTTTAAATTCACACATCGTGCTATTATAT [CACACA_site5003],8.85 ± 0.11
11,TCATATATTTATGTATGTACATATATATATAGATTA [XGTACX_site380],7.4 ± 0.2
12,AAAAATATAATATAATGTACACAAAAAAAAAAATTC [XGTACX_site3657],7.87 ± 0.59
13,TTTTTATAACGTAATAAATAAAACGTCTATACTATA [XGTACX_negctrl_site176],7.51 ± 0.5
14,TATATTATTATAATTTGTACATATCTAATTATATAT [XGTACX_site5342],7.63 ± 0.23
15,TAAAGATATTATTTTTGTACATATTGATATAATGAA [XGTACX_site6571],7.52 ± 0.35
16,AATTAGACATAATATACACACATATATTATAGATAT [CACACA_site7297],7.54 ± 0.58
17,ATATAACATAGACACACACACATATAAATATATTAT [CACACA_site7865],7.96 ± 0.45
18,CTTTATAAAATAAGAGTGCGTTATATTGAATTGTAT [GTGCAC_site9390],10.9 ± 0.6
19,ATATAAGATTTAAGAAGTACAATTATACAGTAGATC [XGTACX_site7501],8.08 ± 0.49
20,ATATATATATAGTGCACACTTAAGAATATAAAGAGG [CACACA_site1151],11.5 ± 0.3
21,CTATAAATATTTTATTGTACACACTTTTTATGAATG [XGTACX_site6711],8.2 ± 0.47
22,AAAATTTTTAGTTATACACACAACATAGAAAATATT [CACACA_site328],7.86 ± 0.54
23,CACATACACCCATACACACACATATATATTAAGATA [CACACA_site4459],8.23 ± 0.11

row,Sequence,gcPBM binding intensity (ln)
1,AATACATACAGACACACACACACATATATATATATA [CACACA_site3558],9.36 ± 0.18
2,AAACTTAATATCGGTACACACACAAGATAAGAATTA [CACACA_site8200],7.75 ± 0.56
3,ATGATAAACATGGATACACACATATAGATTGCATAT [CACACA_site6843],7.8 ± 0.5
4,ATTTCTCTATCGTAATGTACATAAAAAAGAAAAACA [XGTACX_site6374],7.86 ± 0.47
5,TTATTAAATTCATAAGTGCATTTATGATTAATTTTT [GTGCAC_site9749],9.86
6,ATATATATTAACAATACACACGTGTATACCTTATTG [CACACA_site5258],8.06 ± 0.68
7,TTCATCTTAAAATTGGGTACATAACACAAAGTATAA [XGTACX_site1894],7.87 ± 0.55
8,TTACATGTAAAAGGTACACACATTATGTATACAAAT [CACACA_site1117],8.14 ± 0.52
9,TTTTTTTTTTTTTTTTGTCCGTACTGCTTTGTGTTT [XGTACX_site3687],8.11 ± 0.7
10,TCTAATTACAAAAACATACACACAAAAAAAAAAAAA [CACACA_site3783],7.98 ± 0.83
11,ATGTACAAAATAAGCACACACAAAAAAAAAAAAAAT [CACACA_site2998],8.29 ± 0.16
12,TCAAAAATAAAGATCACACATATATATATATATATA [CACACA_site4381],9.53 ± 0.66
13,CCTATAAATGCATTCACACATATATATTTATATTAT [CACACA_site6086],8.09 ± 0.41
14,GTAAGAAACAGACACACACACATATATATATATATA [CACACA_site794],9.44 ± 0.56
15,AATAATTTTATCGGTACACACTGTATGCATAATATT [CACACA_site4364],8.15 ± 0.66
16,GAACAGTTTGTTTAGTGTACTTTTTTTTTTTTTTTT [XGTACX_site8881],8.81 ± 0.44
17,CTTAATTTAATGAAATGTACATATAAAAATATTATA [XGTACX_site3303],7.62 ± 0.35
18,TTTGATCGATGGATTTAACACACAAAAAAAAAAAAA [CACACA_site9279],7.98 ± 0.55
19,TACCAAATTTATTCTTGTACATATATATATATATAT [XGTACX_site4832],9.35 ± 0.43
20,AATATAGAAATAAATATATCACATTTGTGTTTAAAC [XGTACX_negctrl_site68],7.44 ± 0.54
